About 2,200 (0.71%) of roughly 310,000 compounds showed an effect of 50% or more. The effect is printed as a negative number. The list shows a part of the results.
Biological target: human ether-à-go-go-related gene (hERG) potassium channel (human, UniProt Q12809)
Assay: primary screen, population patch clamp on CHO cells stably expressing hERG

Sequence of human ether-à-go-go-related gene (hERG) potassium channel (Q12809 whole entry, looked up): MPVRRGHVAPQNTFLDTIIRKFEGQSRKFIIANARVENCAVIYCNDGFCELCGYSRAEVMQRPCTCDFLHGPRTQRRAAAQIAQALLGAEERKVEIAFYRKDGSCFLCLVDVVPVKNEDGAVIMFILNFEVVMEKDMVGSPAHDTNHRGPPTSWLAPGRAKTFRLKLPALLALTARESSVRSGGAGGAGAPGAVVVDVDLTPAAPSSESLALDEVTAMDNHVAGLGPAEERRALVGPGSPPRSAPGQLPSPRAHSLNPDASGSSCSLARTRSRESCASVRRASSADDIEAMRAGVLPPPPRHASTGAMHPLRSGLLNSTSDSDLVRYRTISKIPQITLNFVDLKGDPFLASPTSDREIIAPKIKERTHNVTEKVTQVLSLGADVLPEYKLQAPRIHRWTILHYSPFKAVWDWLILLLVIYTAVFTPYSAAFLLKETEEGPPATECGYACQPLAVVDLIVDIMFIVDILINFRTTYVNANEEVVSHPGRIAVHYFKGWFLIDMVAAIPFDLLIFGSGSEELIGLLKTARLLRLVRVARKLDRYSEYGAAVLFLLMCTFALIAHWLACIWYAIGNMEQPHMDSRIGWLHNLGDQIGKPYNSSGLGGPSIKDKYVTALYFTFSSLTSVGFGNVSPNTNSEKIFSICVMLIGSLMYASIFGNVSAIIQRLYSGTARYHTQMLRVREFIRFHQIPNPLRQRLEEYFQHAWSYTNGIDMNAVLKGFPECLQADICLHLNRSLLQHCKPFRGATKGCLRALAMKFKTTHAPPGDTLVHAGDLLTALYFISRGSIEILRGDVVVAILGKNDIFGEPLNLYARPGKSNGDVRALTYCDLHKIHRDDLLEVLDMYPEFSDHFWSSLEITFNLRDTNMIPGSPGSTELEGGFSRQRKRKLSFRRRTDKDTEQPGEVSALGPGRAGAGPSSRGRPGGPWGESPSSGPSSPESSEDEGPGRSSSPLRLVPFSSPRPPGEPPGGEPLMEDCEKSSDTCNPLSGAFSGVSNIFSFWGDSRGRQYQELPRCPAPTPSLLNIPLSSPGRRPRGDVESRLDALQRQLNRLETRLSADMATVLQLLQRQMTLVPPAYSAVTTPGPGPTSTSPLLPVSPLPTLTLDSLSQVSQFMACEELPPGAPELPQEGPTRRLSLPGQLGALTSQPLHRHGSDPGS

Row | Compound | hERG current change (%, negative = inhibition) at 1uM [%]
1 | CC(=O)c1cccc(N2C(=O)C3C(C(=O)Nc4cc(C)on4)C4(C)C=CC3(O4)C2C(=O)NC(C)(C)C)c1 (stereo not shown) | 11.4
2 | COc1ccc(S(=O)(=O)NNC(=O)Nc2ccc(C)cc2)c(OC)c1 | 7.16
3 | COc1ccc(CCNc2nc(-c3ccc(O)cc3)cs2)cc1OC | 7.6
4 | Cc1cc(C)n(-c2ccc(C(=O)OCc3nnc(-c4ccccc4)o3)cc2)n1 | 11.1
5 | O=C(NCc1ccncc1)C1COc2ccccc2O1 (stereo not shown) | -5.57
6 | O=C(Cc1ccc(F)cc1)Nc1nnc(-c2ccc(F)cc2)o1 | 9
7 | COC(=O)CCN(C(=O)c1cccc([N+](=O)[O-])c1)c1ccccn1 | 5.49
8 | COc1ccc(S(=O)(=O)NCC2CCCO2)cc1NC(=O)c1ccc(Cl)cc1 (stereo not shown) | -6.75
9 | CCOC(=O)CN(c1cc([N+](=O)[O-])ccc1OC)S(C)(=O)=O | 23.9
10 | CCN(CC)CCNc1nc(-c2cccs2)c(CC(=O)O)s1.O=C(O)C(=O)O | 2.43
11 | COCCN(CC(=O)Nc1cc(Cl)ccc1-n1cncn1)Cc1nc2ccccc2c(=O)[nH]1 | -12
12 | COc1ccc(C)cc1N(CC(=O)N1CCOCC1)S(C)(=O)=O | 15.9
13 | CC(/C=C/c1ccco1)=N\NC(=O)COc1ccc(C)c(C)c1 | -3.38
14 | CCOC(=O)C1CCN(S(=O)(=O)c2ccc3c(c2)CC(=O)N3)CC1 | -1.04
15 | COCc1nnc(SCC(=O)NCc2ccccc2)n1-c1ccccc1 | 3.79
16 | COc1cccc(CNC(=O)CSc2ccc(-c3ccco3)nn2)c1 | 8.75
17 | [O-]/C(=C(\C(=S)NCCN1CCOCC1)[n+]1ccccc1)c1ccc(Cl)s1 | 10.4
18 | NS(=O)(=O)c1ccc(-n2nc(C(=O)O)cc2-c2ccc(Cl)cc2)cc1 | 14.9
19 | COc1ccc(C)cc1N(CC(=O)N/N=C/c1ccccc1C(=O)O)S(=O)(=O)c1ccccc1 | 21.4
20 | O=C1N(c2ccc(Cl)cc2)C(c2ccccc2)N2CCCN12 (stereo not shown) | 22.3
21 | Cc1cc(CSc2ccccc2)ccc1NC(=O)c1cccc([N+](=O)[O-])c1 | 6.04
22 | COc1ccc(CNC(=O)c2ccc3c(=O)n(CCCN4CCCC4=O)c(=S)[nH]c3c2)cc1 | 14.7

Row | Compound | hERG current change (%, negative = inhibition) at 1uM [%]
23 | Cc1ccccc1Cn1cccc1/C=C1/C(=N)N2C=CSC2=NC1=O | 16.6
24 | COc1ccc(N2CCN(CC(=O)NCc3ccccc3)CC2)cc1 | 7.53
25 | CC(=O)Nc1ccc(C(=O)COC(=O)CCS(=O)(=O)c2ccccc2)cc1 | 16.8
26 | Cc1ccc(C(=O)NCC(=O)OCC(=O)NCCc2ccccc2)s1 | 14.6
27 | CCCOc1ccc(CNC(=O)Cn2c(=O)oc3ccccc32)cc1 | 6.29
28 | CC(C)CC(OC(=O)c1ccco1)C(=O)NC1CCCC1 (stereo not shown) | 5.05
29 | N#Cc1c(-n2cccc2)cccc1-n1cccc1 | 11.5
30 | CCOC(CNC(=O)C(=O)Nc1cc2c3c(c1)CCC(=O)N3CCC2)OCC | 12.2
31 | Cc1cc(NC(=O)C2CC(=O)N(c3cccc(Cl)c3)C2)no1 (stereo not shown) | -2.74
32 | O=C(CCN1C(=O)/C(=C/c2ccc(F)cc2)SC1=S)NCCCn1ccnc1 | -18.5
33 | COc1cc(/C=N/n2c(C)n[nH]c2=S)ccc1OCc1ccccc1 | 10.3
34 | CC1CC(C)CN(C(=O)C2CCC(CNc3c(N4CCCCC4)c(=O)c3=O)CC2)C1 (stereo not shown) | 12.9
35 | COc1ccc(N(C)S(=O)(=O)c2c(C)noc2C)c(OC)c1 | 13.9
36 | Cc1nc(-c2nc(-c3c(C(=O)NNC(=O)c4ccc(Cl)cc4)noc3C)cs2)cs1 | 30.7
37 | CCN1/C(=C2\OC(=S)N(C)C2=O)Sc2ccccc21 | 6.51
38 | COc1ccccc1/C=C/C(=O)OCC(=O)NCc1ccco1 | 6.72
39 | O=C(Nn1cnc2ccccc2c1=O)c1c(F)cccc1F | 24.8
40 | CC1(C)CC(=O)C2=C(C1)N(c1cccnc1)C(N)=C(C#N)C2c1cccs1 (stereo not shown) | 14.9
41 | COc1cccc2c(=O)n(CC(=O)N3CCC(C)CC3)ccc12 | 1.7
42 | CCOC(=O)C1(CCCc2ccccc2)CCN(Cc2cnc(C)s2)CC1 | -44.7
43 | Cc1ccc(C)c(-n2cc(CNCCCn3cccn3)c(-c3ccccc3)n2)c1 | -20.1
44 | CCOC(=O)c1cc2c(=O)[nH]ccc2nc1C | 10.5

Row | Compound | hERG current change (%, negative = inhibition) at 1uM [%]
45 | O=C(NNC(=O)c1ccccc1F)c1ccc(-c2ccc(Cl)cc2)o1 | 2.14
46 | Cn1c(CNC2CCCCC2)c(C#N)c2ccccc21 | 5.23
47 | CCCS(=O)(=O)c1c(S(=O)(=O)CCC)c2cnccn2c1C(=O)c1ccc(F)cc1 | 3.95
48 | CN1CCN(S(=O)(=O)c2ccc(Br)c3ccccc23)CC1 | 8.08
49 | CCOC(=O)CNC(=O)C1Cc2ccccc2CN1S(=O)(=O)c1cccs1 (stereo not shown) | 3.82
50 | Cc1[nH]c2ccccc2c1/C=N\NC(=O)CNc1ccc2c(c1)OCO2 | 13.2
51 | CC(C)N(Cc1cnn(C)c1)Cc1nc(COc2ccccc2)no1 | 6.72
52 | O=C(c1ccccc1)N1CCN(CC(O)COc2ccc(Br)cc2)CC1 (stereo not shown) | -46.3
53 | N#Cc1c(Nc2ccccc2)s[nH]c1=O | 6.43
54 | O=S(=O)(c1ccc(SCCOc2ccccc2)nc1)N1CCCC1 | 3.52
55 | CCc1c(C)nc2cc(-c3ccc(OC)c(OC)c3)nn2c1N1CCC(C)CC1 | 19.8
56 | NC(=O)c1c(NC(=O)COC(=O)c2ccc(S(=O)(=O)Nc3ccccc3)cc2)sc2c1CCCC2 | 12.2
57 | COc1ccccc1/C=C1\SC(=O)N(CC(=O)NCCCn2ccnc2)C1=O | 9.66
58 | CC(C)C[C@H](NC(=O)OC(C)(C)C)C(=O)N/N=C/C1=Cc2ccccc2OC1C (stereo partly shown) | 4.35
59 | CCOc1ccccc1C1C(C(N)=O)=C(C)Nc2nc(CCCO)nn21 (stereo not shown) | 13.6
60 | O=C(CSc1nnc(CNc2ccc(F)cc2)o1)N1CCCc2ccccc21 | 11.3
61 | COc1ccc(CN2C(=O)C(C)N(C(=O)c3c(F)cccc3F)c3ccccc32)cc1 (stereo not shown) | 22.6
62 | O=C(CCC(=O)Nc1ccccc1)NNC(=O)c1ccco1 | 13.6
63 | N#CC1=C2SCN(c3ccccc3)CN2C(=O)CC1c1cccs1 (stereo not shown) | 10.1
64 | CCCCC(=O)Nc1nc2ccc3nc(C)sc3c2s1 | 14.3
65 | Cc1noc(C)c1CN1C(=O)c2ccccc2C1=O | 14.5
66 | O=C(Nc1ccccc1Cc1ccccc1)C1CC(=O)N(c2ccc3c(c2)OCCO3)C1 (stereo not shown) | 12.9

Row | Compound | hERG current change (%, negative = inhibition) at 1uM [%]
67 | COc1cc(OC)c2c(-c3ccccc3)cc(=O)oc2c1 | 16.7
68 | CCN1CCC(=NNC(=O)c2ccc(C)c([N+](=O)[O-])c2)CC1 | 8.75
69 | CCC1(C)NC(=O)N(/N=C/c2ccc(C)s2)C1=O (stereo not shown) | 15.8
70 | CCc1nc(N)nc2c1C(=O)CC(C)(C)C2 | 15.8
71 | CCN(CC)CCNC(=O)c1c(C)oc2cc(Br)c(OC)cc12 | 5.82
72 | CCC(C)[C@H](NC(=O)OC(C)(C)C)c1nnc(SCc2c(C)[nH]c(=O)[nH]c2=O)o1 (stereo partly shown) | 11.1
73 | CC(C)N1CCN(Cc2ccc(C#CC(C)(C)O)s2)CC1CCO (stereo not shown) | 10.9
74 | Cc1cc2cc(NC(=O)c3ccco3)ccc2[nH]1 | 1.84
75 | Cc1cc(OC(=O)c2cc(F)c(F)cc2Cl)nc(C)n1 | 21.8
76 | Cc1ccc(N(CC(=O)NC2CCCC2)C(=O)CCC(=O)Nc2nccs2)c(C)c1 | 9.35
77 | Cc1ccccc1C(=O)OC1CCCN(C)C1.Cl (stereo not shown) | 16.1
78 | O=C(CCC1CCCN(C(=O)c2ccco2)C1)NCc1ccccc1F (stereo not shown) | 1.73
79 | CN1C(=O)S/C(=C/c2ccccc2OCc2ccc(C(=O)O)cc2)C1=O | 8.3
80 | COc1ccc(N2CCN(C(=O)COC(=O)CNC(=O)c3ccccc3)CC2)cc1 | 12.9
81 | CCN(C(=O)Nc1cccc(Cl)c1)c1ccccc1 | 15
82 | O=C(Cc1ccc(S(=O)(=O)N2CCCCC2)cc1)NCc1ccc(Cl)cc1 | -16.8
83 | Cc1nc(CC(C)C)cc(C(=O)N2CCCC(Nc3ccc(C)c(C)c3)C2)n1 (stereo not shown) | 6.23
84 | COc1cc(CN(C)Cc2cc(=O)n3ccsc3n2)ccc1OC(F)F | -6.1
85 | O=C(Cn1nc(C(F)F)cc1C(F)F)NNC(=S)Nc1ccc(F)cc1 | 8.48
86 | Cc1ccc(NC(=O)COC(=O)CCc2ccc(S(=O)(=O)N3CCOCC3)cc2)c(C)c1 | -8.88
87 | CCc1cc(=O)oc2c3c(cc(OCC(=O)N[C@H](C(=O)O)[C@H](C)CC)c12)OC(C)(C)CC3 | 12.2
88 | CCOC(=O)c1c(-c2ccccc2)csc1NC(=O)/C(C#N)=C/c1ccc(OC)c(OC)c1 | 9.35
